Source: the supplement of paper PMC10681739
Whole data set: some 2,700 sequences, median “arbitrary fluorescence units” near 4,100, cut for the highest 2% near 54,000. Some of the results follow.

These sequences were tested against T1, ETS1 (UniProt P14921) (assay: ETS1 binding intensity (PBM fluorescence) (arbitrary fluorescence units); higher = stronger binding). Settings: ETS1 concentration 10 nM.
T1 sequence: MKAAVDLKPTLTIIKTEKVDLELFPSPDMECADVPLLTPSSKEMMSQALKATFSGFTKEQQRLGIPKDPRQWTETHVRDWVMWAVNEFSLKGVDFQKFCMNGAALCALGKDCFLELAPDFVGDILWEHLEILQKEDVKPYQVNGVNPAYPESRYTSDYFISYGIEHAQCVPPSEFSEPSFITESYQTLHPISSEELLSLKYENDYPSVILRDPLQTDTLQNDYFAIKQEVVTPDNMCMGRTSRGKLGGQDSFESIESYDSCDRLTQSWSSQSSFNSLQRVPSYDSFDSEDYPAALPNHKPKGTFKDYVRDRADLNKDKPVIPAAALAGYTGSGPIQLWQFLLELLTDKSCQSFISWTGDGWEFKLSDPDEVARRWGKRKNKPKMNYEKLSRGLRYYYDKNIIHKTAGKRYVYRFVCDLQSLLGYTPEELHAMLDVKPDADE
Description: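 gcPBM on wild-type 36-bp genomic probes with two neighbouring ETS1 sites (4-24 bp apart). Recombinant human ETS1 (10 nM) was detected with anti-ETS1 antibody fluorescence. Values are medians over 3 replicate spots. The probes sit in constant array flanks that are not printed.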
For GTCTCGCTGGCTCAGGAAGGAAGCTGCAGACTTTCG, the ETS1 binding intensity was 177.
For GTGGGGCCTCAATTTCCTTTTCCTGTTCAGGGCGTG, the ETS1 binding intensity was 6940.
CCCTACAGGAAGGGGCCTCTGCTACTTCCTAGACCG gave an ETS1 binding intensity of 2750.
With AGCGGGACTTCCCACTGAGACGAGCGGATGTCATAT the ETS1 binding intensity was 1330.
GCCAGTGATCCTGTTTGAGCCTCTCAGGAAGCATTG was tested, and the ETS1 binding intensity was 181.
Sequence GGGCCAGGAAGCCCAGGCAGCCTCACTTCCTCTCTC has an ETS1 binding intensity of 1740.
Work on TTCTCTGCCTTTCCTGCTTGGCTTCCTGATGGCTGC yielded an ETS1 binding intensity of 1730.
In the case of TCCCTTCCTCTCTCTCTCACACACACACTTCCTCTC, the ETS1 binding intensity is reported as 5900.
TAAGTTTCCTGAGGCCTCTCCAGAAGAGGAAGCCCC gave an ETS1 binding intensity of 4420.
TACTTTCCATTCCATCCACAGGATGCTTCCTGTGTA gave an ETS1 binding intensity of 1250.
With GGCCAACAGGAAGCAGGTGCTCACATCCTGAAGCAC the ETS1 binding intensity was 5370.
AGGCAGGAAATGGCTGTGGCTGAGGCAGGATGCATT was tested, and the ETS1 binding intensity was 6180.
In the case of GCTTTGGTTTCCTCATATACAAACCGGATGAGATGG, the ETS1 binding intensity is reported as 1870.
ACCCCACAGGAAGGCCCAGGCGCCGGGAAACAGTCT was tested, and the ETS1 binding intensity was 351.
In the case of AGCCATGGAGTTTCCTTTGAAGGAAATCAACATTTG, the ETS1 binding intensity is reported as 826.
Work on TTAACGGGAAGCTCTTTGCATTTGCATTTCCTCAAC yielded an ETS1 binding intensity of 301.
With TGGCACAGGAAAGGGTCACAGAACACGGATATCTCA the ETS1 binding intensity was 608.
TCAGAATGTGCACAGGAAGGAAGCTCTGACTAAGCT showed an ETS1 binding intensity of 528.
CTTCACTTTATCCTGTTGGGACCAGGAAACAAAGTA showed an ETS1 binding intensity of 562.
With CTCCCCGGGAAATGTTTGTCACCACTTCCTGCCACA the ETS1 binding intensity was 5260.
ATGCTGCTTCCTGCCTTTCTCCTTCTTCCTGTCTCA gave an ETS1 binding intensity of 19600.
GACCTGGCCAGGAAGGCCTGAGCTTCCGGGTCATCT gave an ETS1 binding intensity of 1600.
With GCTCCGGAAGCGGCTGCGGCCCCGACCGGAAAGCCC the ETS1 binding intensity was 7420.
AGGCCCTTCCGGCTCACGCGCCGTACGGAAGCGTGC was tested, and the ETS1 binding intensity was 17100.
CGTGTGGCGTCACTTCCGGCTTCCTTCAGTCCGCTG was tested, and the ETS1 binding intensity was 39400.
For TAAAAACTACATTTCCCAGACTTCCTTGCAACTAGG, the ETS1 binding intensity was 188.
With GAAGCTTTGGTCTTCCGCTTTTTCCTGCCTGTATCA the ETS1 binding intensity was 4070.
For ACCCCAGCCGGAAGTAGACTCCCAGGATGCAGCGGA, the ETS1 binding intensity was 24500.
TCGGGACCCACATCCTGCCCCCATCCTGTGTACCCA was tested, and the ETS1 binding intensity was 11800.
TGCTAGGTCATTTCCTCTCCTTTCCGCGAGACCTTC showed an ETS1 binding intensity of 8910.
For ATAGGGCCGGGGCTTCCTCTTCCGGCAAGGAGGGGT, the ETS1 binding intensity was 3470.
ATATGGGTAGGACAGGAAGGAAGTGGTGTGTGGTCC gave an ETS1 binding intensity of 851.
For GCCAGACTTCCTTTGTTTAGAATGTGGGAAATGTCT, the ETS1 binding intensity was 12800.
TCAGTTTAATCCGGTCTGAGTTAACTTCCTGACCCA gave an ETS1 binding intensity of 1290.
CCAGGGAGGAAGTGTCGGTGTTTACAGGAAATGCAG was tested, and the ETS1 binding intensity was 3530.
GCCCAGGAAATGGAAGCCAGAGGAAGCAGAGGGGTG gave an ETS1 binding intensity of 2820.
Sequence ACGGGTGCCAGGAAGAATGCACAGGATACGGGCTTC has an ETS1 binding intensity of 379.
In the case of CTAAAGGAAATCGAGTGTAATTTACAGTTTCCGCTC, the ETS1 binding intensity is reported as 2310.
TTTGCAGGAAGCAGGGCTACCAGCAGCTTCCTGCGT showed an ETS1 binding intensity of 1480.
ACACAGACAGGAAGCAGGGCTCACTTCCTGCACCAG showed an ETS1 binding intensity of 10500.
In the case of TGACTCACTTCCTTTGCATAGAAGCGGAAACCTCCC, the ETS1 binding intensity is reported as 13100.
CCGCGAATCCGGTGCTTTCTTGCCCCAGGAAGAAGC showed an ETS1 binding intensity of 5030.
CCCAGCGAGAGGTTTCCTCTTCCGGCACCTGACCCC gave an ETS1 binding intensity of 4930.
GCACCCAGCCAACTTCCTGTTTCCGCGGTAGCGCGC was tested, and the ETS1 binding intensity was 37500.
In the case of AAAGGTGACCGGGCTTCCTTCCGGCTTGCTAAGCAG, the ETS1 binding intensity is reported as 5790.
With CTAGTGAGGAAATAGGCCAGAGAAAGGAAGTGACTT the ETS1 binding intensity was 774.
For CAGCTCCTCCAGGAAGCCCGACATCCTGGCCCACCG, the ETS1 binding intensity was 1350.
Work on TTCTGTTTCCTGGGCTGCAGGGGAGCAGGAAATCTG yielded an ETS1 binding intensity of 5560.
With CCTGAGTTTCCTTGTCTGGAGCTGCAGGATATTTGT the ETS1 binding intensity was 800.
Sequence ACTATGACACAGGAAATTAACAGGAAGACTTAGAGG has an ETS1 binding intensity of 4870.
Work on GCATTCATCCTGACCTTACTGAGGGCTTCCTGTGTT yielded an ETS1 binding intensity of 2280.
CAATGAAGGAAATTGTGCCCTGCGACTTCCCGTAAC gave an ETS1 binding intensity of 594.
In the case of GTGGCGTGGCCAGTTTCCTTTCCGGCGCTGACAGGC, the ETS1 binding intensity is reported as 3040.
CTGGTTTCCTGTCAAACGATCAAAGCAGGAAATATG gave an ETS1 binding intensity of 25800.
Work on CAGTCATGGCAGGAAGAGAAGAGGAAACACCTGGGG yielded an ETS1 binding intensity of 604.
With TTCCACTTCCGGTCTTACCCGGCTACTTCCGCTGCT the ETS1 binding intensity was 147000.
For CATGGGGATGTGGTATCAGGCGGGGCAGGAAGTCAC, the ETS1 binding intensity was 530.
GAGAGGCAGGAAGAGAGCAGAGCCGGAAGCACAAGG showed an ETS1 binding intensity of 2630.
Work on ATTGCTTCCTTTGCATATTCACCATACATCCTGCTT yielded an ETS1 binding intensity of 7340.
AAGACAGGAAACAACAGATGCTGAAGAGGATGTGGA gave an ETS1 binding intensity of 3180.
With ATTGGACACCACCGGAAACGGAAATTCACCGTCGCG the ETS1 binding intensity was 19100.
TGGTCGGTTCTTCCTGCCTGCCTTCCTGTCCGTCGG showed an ETS1 binding intensity of 8340.
In the case of GGGCCACTTTTCCGCAGGGGGCATTTCCGTCTGGCG, the ETS1 binding intensity is reported as 1860.
Work on GCGCTTCCGGGACGCAGGAGGCATCTGCATCCGGGG yielded an ETS1 binding intensity of 29000.
AAAACAGGAAGCGCCCAGTCACCACAGGAAGCATGT showed an ETS1 binding intensity of 10000.
In the case of GCCTAGGGAGTGAGGAAGCAGGAAGTGAAGCCCTGA, the ETS1 binding intensity is reported as 3590.
CTAGAAGAGACTTCCCCAACAGGATGTTGCCCAACC gave an ETS1 binding intensity of 2380.
Work on GGTTATCCGGACACAGGGAGTCTCCAGCTTCCGGCT yielded an ETS1 binding intensity of 6080.
GGACCTCCCCAGCGGAAGCGGAAGTGGCCGCCGGCA showed an ETS1 binding intensity of 12100.
Sequence GGCCAGAGCGGCAGGATGGCTTCCGGCTTCAAGAAG has an ETS1 binding intensity of 9710.
Sequence CACCCACTTCCTGCCAGCCAGCTGCTTCCTCCTGTT has an ETS1 binding intensity of 47800.
In the case of ACCTTAGGCATGGGAAATGACATCCTTAGATGCCCT, the ETS1 binding intensity is reported as 184.
In the case of GACACACAGGAAGCTAACCTTGCATTTCCTCCAGGA, the ETS1 binding intensity is reported as 3990.
With AGAAATCCTGTCTTGGGAATAGCCACGCATCCTGCC the ETS1 binding intensity was 3070.
GGTAGATCTCCAGGAAGCACAGGAAGTCGGTGAGCA gave an ETS1 binding intensity of 3430.
Sequence AACGGCTGTATCCGGAGCCAGTGCTTCCTCAGTGCG has an ETS1 binding intensity of 6160.
For AAAAATTATTTCCGGCTCCTCCCGGAAGTGCCGAAG, the ETS1 binding intensity was 35000.
For TACGGCCCGGTTTCCCGTTTCTTTCCGCTGTCGCGT, the ETS1 binding intensity was 2560.
For CGGGGAGCCAGGAAGGCAGACAGGATGTGGAGGTCA, the ETS1 binding intensity was 2010.
Sequence TTCCCTCACTTCCTTTTCACACTTTCCTGCCAAGTG has an ETS1 binding intensity of 14700.
